Out of some 44,000 compounds screened, about 340 (0.77%) were called active. Not shown: some 5% with an inconclusive outcome. The call rests on the fitted dose curve; in most records, active means well fitted inhibition curve with a large enough effect; inconclusive means small, poorly fitted or top-dose-only effect; inactive means flat fitted curve, though single readings scatter. Some of the results follow.
experiment: Acumen qHTS Assay for Inhibitors of the mTORC1 Signaling Pathway in MEF (Tsc2-/-, p53-/-) Cells: Sytravon; settings: phospho-rpS6 immunofluorescence/PI, 24 h; series mostly up to 38.3 µM; activity change, negative = inhibition: at the top concentration;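 further: plate controls were DMSO for no effect and rapamycin for full effect; nearly all actives have a fitted effect of over 50% in size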
Procedure, shortened: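 Tsc2-/-, p53-/- MEFs (empty-vector stable line) in DMEM + 10% FBS were treated with compounds 24 h at 37 degree Celsius, fixed, and immunostained for phospho-rpS6 (Alexa-488) with propidium iodide counterstain. Laser-scanning cytometry gave % positive cells, normalized against 7.5 nM rapamycin and DMSO.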

Activity change, negative = inhibition, inactive:
Cc1cccc(C(=O)Nc2cccc(C(=O)OCc3cc(=O)n4ccsc4n3)c2)c1 1.95%
CCOC(=O)c1ccc2ncc(C(=O)OCC)c(Nc3ccc(C)c(Br)c3)c2c1 -11.1%
COc1ccc(Br)cc1CNC(=O)CN1C(=O)CSc2ccc(S(=O)(=O)N3CCOCC3)cc21 2.99%
Cc1ccc(NC(=O)c2cc3c(=O)n(Cc4cccnc4)ccc3nc2C)cc1F -8.83%
COc1ccc(OC(C)C(=O)NCc2nc(-c3ccc(Cl)cc3)no2)cc1 (centres undefined) -27.6%
COc1ccc(NC(=O)CNS(=O)(=O)c2cccs2)c(OC)c1 -8.26%
COc1ccccc1NC(=O)C1=C(C)Nc2ncnn2C1c1ccccn1 (centres undefined) 5.32%
COc1ccc(OC)c(CNC(=O)c2cccc(NC(=O)N3CCSc4ncccc43)c2)c1 -11.1%
CC(C)Sc1ncc(Cl)c(C(=O)Nc2ccc(S(=O)(=O)N3CCCCC3C)cc2)n1 (centres undefined) -0.949%
O=c1c2oc3ccccc3c2n(Cc2cccc(C(F)(F)F)c2)c(=O)n1Cc1ccc2c(c1)OCO2 -4.48%
CCOc1ccccc1N(C)C(=O)NCc1noc2ccccc12 -15.4%
CCOc1ccccc1NS(=O)(=O)c1ccc2oc(=O)c3ncn(C)c3c2c1 -1.33%
Cc1ccc(-n2nc(C)c3nc(CCC(=O)Nc4ccc(F)cc4)c(=O)n(C)c32)cc1 12%
CCn1cc(C(=O)NC(C)c2ccccc2)c(=O)c2cc(S(=O)(=O)N3CCc4ccccc4C3)ccc21 (centres undefined) 10.9%
Cc1ccc(NC(=O)Cn2cc(S(=O)(=O)N3CCCC3)c(S(=O)(=O)N3CCCC3)c2)c(C)c1 -1.29%
O=C(NCCc1ccc(Cl)cc1)c1cccn1-c1nnc(N2CCCC2)s1 7.64%
COc1ccc(C(=O)c2cn(CC(=O)Nc3ccc4c(c3)OCO4)c3ccc(OC)cc3c2=O)cc1 -6.08%
CCCn1cc(S(=O)(=O)c2ccccc2)c(=O)c2cc(F)c(N3CCCC3)cc21 -2.45%
COc1ccc(C(=O)N2CCC(C(=O)Nc3ccccc3Cl)CC2)cc1 -2.83%
CCc1ccccc1NC(=O)c1cc(S(=O)(=O)NC2CCCC2)ccc1F 5.28%
CCCn1ccc2c(OCC(=O)Nc3ccc(F)cc3F)cccc2c1=O 4.45%
Cc1cccc(OCC(=O)Nc2ccc3c(c2)N(C)C(=O)c2ccccc2S3)c1 -12.8%
COc1ccc(-n2nc(C(=O)N3CCN(c4cccc(C)c4)C(C)C3)c3c4ccccc4n(C)c3c2=O)cc1 (centres undefined) -1.14%
Cc1ccc(C(=O)N/C(=C\c2cn(S(=O)(=O)N(C)C)c3ccccc23)C(=O)NCCCn2ccnc2)cc1 -0.675%
COc1ccc(CN2CCCN(CC(=O)Nc3ccc4c(c3)OCCO4)S2(=O)=O)cc1 0%
Cc1ccc(C(=O)N2CCC(C(N)=O)CC2)cc1NC(=O)c1nsc2ccccc12 5.97%
COc1ccccc1CNC(=O)CCCn1c(=O)c2ccccc2n(Cc2ccc(C)cc2)c1=O 0.251%
COc1ccc(N(CC(=O)NCCc2ccc(Cl)cc2)S(=O)(=O)c2c(C)nn(C)c2C)cc1 -13.3%
CCOC(=O)C1CCN(C(=O)c2nn(-c3ccc(OC)cc3)c(=O)c3c2c2ccccc2n3C)CC1 0.0987%
Cc1ccc(-c2noc(-c3nnn(CC(=O)Nc4cc(Cl)ccc4C)c3N)n2)cc1 -0.266%
CC1CCN(S(=O)(=O)c2cc(C(=O)N3CCN(c4ccccc4F)CC3)n(C)c2)CC1 -0.821%
CCC1CN(C(=O)C2CCN(S(=O)(=O)c3c(C)noc3/C=C/c3ccccc3F)CC2)c2cc(C)ccc2O1 (centres undefined) 0.666%
CCCCn1c(SCC(=O)NCc2ccc(C)cc2)nc2c(sc3ccccc32)c1=O -6.13%
COCCN1CCN(Cc2ccc(C(=O)NC(C)C)cc2)C(=O)C1=O 0%
COc1ccc(NC(=O)c2oc3ccccc3c2NC(=O)Cc2cccs2)c(OC)c1 -18.1%
COc1ccc(CNC(=O)C(C)n2c(=O)cc(C)c3c(C)nn(-c4ccccc4)c32)cc1 (centres undefined) -2.92%
CCc1cccc(NC(=O)C2CCN(S(=O)(=O)c3cccc(-c4noc(C)n4)c3)CC2)c1 -14.5%
Cc1nc2c(c(C)nn2-c2ccccc2)c(C)c1CCC(=O)NCc1ccccc1 3.74%
CCN1CCN(Cc2c(O)ccc3cc(-c4ccc(OC)cc4)c(=O)oc23)CC1 0%
COc1ccc(C2c3cccn3CCN2S(=O)(=O)c2ccc([N+](=O)[O-])cc2)cc1 (centres undefined) 0.234%
CC(=O)c1cccc(NC(=O)c2nc(-c3ccccc3)n(-c3ccccc3C)n2)c1 1.93%
Cc1ccn2cc(-c3ccc(C)c(NS(=O)(=O)c4ccc(Cl)cc4)c3)nc2c1 -14.1%
Cc1nnc(N2CCCC(C(=O)NCCc3ccccc3)C2)c2nn(-c3ccccc3)c(C)c12 (centres undefined) -8.36%
Cc1ccc(S(=O)(=O)c2nc(-c3cccc(Cl)c3)oc2NCc2ccccc2)cc1 0.892%
COC(=O)c1cc2oc3ccccc3c2n1CC(=O)Nc1ccc(C)cc1C -1.61%
CCOC(=O)Cn1c(=O)oc2cc(S(=O)(=O)N3CCN(c4cc(C)ccc4C)CC3)ccc21 0.299%
COCCCNC(=O)c1ccc2nc(CCc3ccccc3)oc2c1 -10.3%
CCOC(=O)c1c(NC(=O)c2ccc(C)c(C)c2)sc2c1CCCCC2 -2.78%
CCc1ccc(C(=O)NC2=NC(c3ccccc3F)CC(=O)N2)cc1 (centres undefined) 0.116%
Cn1cnc(S(=O)(=O)N2CCCC(C(=O)Nc3ccc(OC(F)(F)F)cc3)C2)c1 (centres undefined) 0%
CCC(=O)N1CCc2cc(S(=O)(=O)NC(C(=O)Nc3cc(OC)cc(OC)c3)C(C)C)ccc21 (centres undefined) -5.15%
Cc1c(Cl)ccc2sc(N3CCN(C(=O)CS(=O)(=O)c4ccccc4)CC3)nc12 -7.82%
CCOc1ccc(OCC)c(NS(=O)(=O)c2ccc3c(c2)CCN3C(=O)C2CCC2)c1 0.109%
O=C(Cc1c(C(=O)O)[nH]c2ccccc12)Nc1cccc(C(F)(F)F)c1 -7.08%
CCCN1CCN(CCCNC(=O)c2c(C)nn(-c3ccc(F)cc3)c2-n2cccc2)CC1 -14.9%
CCOc1ccc(CNC(=O)Cn2c(=O)c3cccn3c3ccccc32)cc1 0.892%
Cc1ccc(OCC(=O)Nc2ccc(-c3nc4ccccc4o3)cc2)c(C)c1 -2.67%
O=C(Nc1ccccc1Br)N1CCC(CN2CCCC2)CC1 -1.28%
CCn1cc2nc(SCc3cccc(C(F)(F)F)c3)n(Cc3ccc(C)cc3)c(=O)c2n1 -2.13%
